Screen size: about 48,000 compounds; about 550 (1.1%) were called active. Roughly 4% stayed inconclusive and do not appear here. Rule as the data show it: active = potency below about 15 µM; inconclusive = mostly about 16 µM to 33 µM; inactive = weaker than that. The list shows a part of the results.
Biological target: Lysosomal acid glucosylceramidase (Homo sapiens) (UniProt P04062)
Assay: Glucocerebrosidase;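 also: the screen sought inhibitors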
Settings: purified enzyme, resorufin glucoside fluorescence (screen aimed at inhibitors), 20 min
Procedure, shortened: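 Compounds titrated against 0.2 nM normal enzyme, 30 uM resorufin beta-D-glucopyranoside substrate, citrate/phosphate buffer with taurocholate and tween-20, pH 5.9. Reaction ran 20 min at room temperature; fluorescence (Ex 548/Em 600) gave AC50.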
Potency is read from the fitted curve at half-maximal effect.

UniProt P04062, sequence (P04062 whole entry, looked up): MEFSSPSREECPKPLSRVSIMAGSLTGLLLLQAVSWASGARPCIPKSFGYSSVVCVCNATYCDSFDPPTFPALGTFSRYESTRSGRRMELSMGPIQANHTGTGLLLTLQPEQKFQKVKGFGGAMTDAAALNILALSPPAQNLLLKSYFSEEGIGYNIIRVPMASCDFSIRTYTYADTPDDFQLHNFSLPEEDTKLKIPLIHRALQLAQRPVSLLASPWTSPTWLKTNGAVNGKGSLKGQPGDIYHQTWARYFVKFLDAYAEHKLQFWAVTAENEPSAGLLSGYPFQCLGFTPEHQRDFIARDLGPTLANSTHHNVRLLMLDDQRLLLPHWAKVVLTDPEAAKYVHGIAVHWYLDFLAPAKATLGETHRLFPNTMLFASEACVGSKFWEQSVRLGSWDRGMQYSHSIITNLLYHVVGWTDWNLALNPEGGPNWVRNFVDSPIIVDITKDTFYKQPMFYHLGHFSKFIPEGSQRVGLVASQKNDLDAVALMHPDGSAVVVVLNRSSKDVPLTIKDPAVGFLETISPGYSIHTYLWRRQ

Row | Structure (SMILES) | Potency
1 | COC(=O)c1cc(C(=O)OC)cc(S(=O)(=O)Nc2ccc(Cl)c(N)c2)c1 | inactive: > 76.9 µM
2 | COc1ccc(S(=O)(=O)c2c(N)n(Cc3ccco3)c3nc4ccccc4nc23)cc1 | inactive: > 76.9 µM
3 | CCOC(=O)c1ccc(NC(=O)Nc2ccc(S(N)(=O)=O)cc2)cc1 | inactive: > 76.9 µM
4 | COc1c(S(=O)(=O)N2CCCC2)ccc(Cl)c1Cl | inactive: > 76.9 µM
5 | COc1cc(NC(=O)CS(=O)(=O)c2ccc(C)cc2)cc(OC)c1OC | inactive: > 76.9 µM
6 | COc1cccc(C2C(C(=O)c3sc(C)nc3C)=C(O)C(=O)N2CCN(C)C)c1OC (stereo unspecified) | inactive: > 76.9 µM
7 | O=C(CC1SCCNC1=O)Nc1cccc(C(F)(F)F)c1 (stereo unspecified) | inactive: > 76.9 µM
8 | CNc1oc(Cc2ccccc2)nc1S(=O)(=O)c1ccccc1 | inactive: > 76.9 µM
9 | Nn1c(=O)c2ccccc2n2c(SCc3ccccc3)nnc12 | inactive: > 76.9 µM
10 | CCOc1ccc(NC(=O)C2CC(=O)N(CC)C(=Nc3ccc4c(c3)OCO4)S2)cc1 (stereo unspecified) | inactive: > 76.9 µM
11 | Cc1cc(Oc2ccccc2)nc(OCC#N)n1 | inactive: > 76.9 µM
12 | COc1ccc2[nH]c3ccccc3c2c1 | inactive: > 76.9 µM
13 | COC(=O)C1C2C=CC3(CN(Cc4ccco4)C(=O)C13)O2 (stereo unspecified) | inactive: > 76.9 µM
14 | CCn1c(SCC(=O)NCc2ccco2)nc2cccnc21 | inactive: > 76.9 µM
15 | Cc1oc2c(c1C(=O)NCc1ccccc1)CCCC2 | inactive: > 76.9 µM
16 | COc1ccc(-c2ccc(SCC(=O)NCc3ccco3)nn2)cc1 | inactive: > 76.9 µM
17 | COc1ccc2[nH]c(C(=O)O)c(NS(=O)(=O)c3ccc(OC)c(OC)c3)c2c1 | inactive: > 76.9 µM
18 | O=C(CCSc1nnc(-c2ccncc2)o1)Nc1ccccc1 | inactive: > 76.9 µM
19 | Cc1ccc(C(=O)CC(C(=O)O)n2cccn2)cc1 (stereo unspecified) | inactive: > 76.9 µM
20 | CCCCNC(=O)Nc1ccc(Br)cn1 | inactive: > 76.9 µM
21 | CCN(CC)CCOC(=O)c1ccc(NC(=O)CCNC(=O)Cn2ccc3ccccc3c2=O)cc1 | inactive: > 76.9 µM
22 | Nc1c(C(=O)NC2CCCC2)sc2nc(-c3cccs3)ccc12 | inactive: > 76.9 µM
23 | C/C(=N\n1nnnc1Nc1ccccc1)c1ccc(N)cc1 | inactive: > 76.9 µM

Row | Structure (SMILES) | Potency
24 | CCN(CC)CCN1C(=O)C(=O)/C(=C(/O)c2ccc(OCC(C)C)cc2)C1c1ccncc1 (stereo unspecified) | inactive: > 76.9 µM
25 | CN1CCN(c2ccccc2NC(=O)c2ccc(Br)o2)CC1 | inactive: > 76.9 µM
26 | COCCCNC(=O)CCc1nc(-c2ccccc2Cl)no1 | inactive: > 76.9 µM
27 | O=C(CSc1ncnc2sc3c(c12)CCCC3)N1CCC(c2noc3ccc(F)cc23)CC1 | inactive: > 76.9 µM
28 | CCOc1cc(-c2c(C)c(CC)nc(N)c2C#N)ccc1O | inactive: > 76.9 µM
29 | CC1=C(C(=O)OCC2CCCO2)C(c2ccncc2)C2=C(CC(C)(C)CC2=O)N1 (stereo unspecified) | inactive: > 76.9 µM
30 | O=C(CSc1nc2cc(Cl)ccc2o1)c1cccs1 | inactive: > 76.9 µM
31 | CCn1c(SCC(=O)Nc2cc3oc4ccccc4c3cc2OC)nnc1-c1cccs1 | inactive: > 76.9 µM
32 | Cc1ccc(SCc2[nH]nc3c2C2(CCSCC2)C(C#N)=C(N)O3)cc1 | inactive: > 76.9 µM
33 | Cc1nnc(N(Cc2ccccc2)C(=O)c2cnccn2)s1 | inactive: > 76.9 µM
34 | O=C(O)C1CC=C(Cl)CC1C(=O)NCc1ccccc1 (stereo unspecified) | inactive: > 76.9 µM
35 | CCCCNC(=O)CCC(=O)Nc1ccc2nc(N3CCOCC3)cc(C)c2c1 | active: 3.76 µM
36 | CCOC(=O)c1c(C)[nH]c(C(=O)OCC(=O)N2c3ccccc3CC2C)c1C (stereo unspecified) | inactive: > 15.4 µM
37 | O=C(CN1C(=O)NC2(CCCCC2)C1=O)NCCC1=CCCCC1 | inactive: > 76.9 µM
38 | CCOC(=O)c1cnc(SCc2nc(N)nc(Nc3ccc(C)cc3)n2)nc1N | inactive: > 76.9 µM
39 | Cc1cccc(C)c1NC(=O)CSCC(=O)O | inactive: > 76.9 µM
40 | CCN(CCCNC(=O)C1CCN(S(=O)(=O)N2CCOCC2)CC1)c1cccc(C)c1 | inactive: > 76.9 µM
41 | CCOC(=O)C1CCCN(C2CC(=O)N(c3ccc(C)c(C)c3)C2=O)C1 (stereo unspecified) | inactive: > 76.9 µM
42 | CCC(=O)Nc1cccc(NC(=O)CSc2nnc(-c3ccc(NS(C)(=O)=O)cc3)n2C)c1 | inactive: > 76.9 µM
43 | Cc1nc2cc(S(=O)(=O)N(C)C)ccc2n1-c1ccccc1 | inactive: > 76.9 µM
44 | Cc1ccccc1Oc1ccc(Oc2ccccc2C)nn1 | inactive: > 76.9 µM
45 | C/C(N)=C(/C#N)C(=O)CSc1ccc2c(c1)OCCO2 | inactive: > 76.9 µM
46 | CCC1S/C(=C(\C#N)C(=O)NCc2ccco2)N(c2ccc(F)cc2)C1=O (stereo unspecified) | inactive: > 76.9 µM

Row | Structure (SMILES) | Potency
47 | FC(F)(F)c1cnc(Oc2ccc(-c3nnco3)cc2)c(Cl)c1 | inactive: > 76.9 µM
48 | COC(=O)c1cc(NC(=O)C23CCC(C)(C(=O)O2)C3(C)C)cc(C(=O)OC)c1 (stereo unspecified) | inactive: > 76.9 µM
49 | COc1ccccc1NC(=O)CN1CCN(CC(=O)Nc2ccc(F)cc2)CC1 | inactive
50 | CC(C)=CCC/C(C)=C/CCC(C)NCCN1CCNCC1 (stereo unspecified) | inactive: > 76.9 µM
51 | CCCCCn1c(CN2CCCCC2C)nc2c1c(=O)n(C)c(=O)n2C (stereo unspecified) | inactive: > 76.9 µM
52 | CC1=CC(C)(C)Nc2cc(C)c(C)cc21 | inactive: > 76.9 µM
53 | CCOC(=O)c1cnn(-c2cccc(Cl)c2)c1N | inactive: > 76.9 µM
54 | CCOc1ccc2nc(NC(=O)CSc3nc4ccccc4c(=O)n3Cc3ccco3)sc2c1 | inactive: > 76.9 µM
55 | O=S(=O)(Cc1ccc(Cl)cc1)NCC1CCCO1 (stereo unspecified) | inactive: > 76.9 µM
56 | CC1(C)OC(=O)N(c2cccnc2)C1(C)O (stereo unspecified) | inactive: > 76.9 µM
57 | Clc1ccc(SCCCCn2cncn2)cc1 | inactive: > 76.9 µM
58 | Nc1ccc2c(c1)C(=O)N(CCCC(=O)O)C2=O | inactive: > 76.9 µM
59 | Cn1c(CN2CCCCC2)nc2cc(NC(=O)c3cccs3)ccc21 | inactive: > 76.9 µM
60 | O=C(CN1CCN(S(=O)(=O)c2ccc(F)cc2)CC1)Nc1cccc(C(F)(F)F)c1 | inactive: > 76.9 µM
61 | CC1=C(C(=O)Nc2ccccc2C)C2(CCCC2)C(C(N)=O)C(=O)N1 (stereo unspecified) | inactive: > 76.9 µM
62 | O=C(CSc1nc2c(c(=O)n1-c1ccc(Cl)cc1)SCC2)N1CCCC1 | inactive: > 76.9 µM
63 | O=S(=O)(c1cccs1)N1CCN(CC(O)COC2CCCc3ccccc32)CC1 (stereo unspecified) | inactive
64 | CCOc1ccccc1NC(=O)C1CC2CCCC(C1)C2=O (stereo unspecified) | inactive: > 76.9 µM
65 | Cc1[nH]nc2c1C(c1ccccc1F)CC(=O)N2 (stereo unspecified) | inactive: > 76.9 µM
66 | Cc1csc(NC(=O)CSc2nnc(-c3ccncc3)o2)n1 | inactive: > 76.9 µM
67 | CN(c1ccc(C(=O)N2CCCCC2)cc1)S(C)(=O)=O | inactive: > 76.9 µM
68 | O=C(/C=N/O)Nc1cccnc1 | inactive: > 76.9 µM
69 | CCOc1cc(C2C(C(=O)OC)=C(C)N=C3SC(C)C(=O)N32)ccc1OC(C)=O (stereo unspecified) | inactive: > 76.9 µM

Row | Structure (SMILES) | Potency
70 | O=C(NCc1ccncc1)c1nnc(Cc2c(F)cccc2Cl)o1 | inactive: > 76.9 µM
71 | CCCCOc1ccc(-c2ncc(C(=O)OCC)c(N)n2)cc1 | inactive: > 76.9 µM
72 | CC1=C(C(=O)OC(C)(C)C)C(c2ccco2)C(C#N)=C(N)O1 (stereo unspecified) | inactive: > 76.9 µM
73 | Cc1c(N2C(=O)C(C)SC23C(=O)Nc2ccccc23)c(=O)n(-c2ccccc2)n1C (stereo unspecified) | inactive: > 76.9 µM
74 | COc1ccccc1-c1noc(-c2ccncc2)n1 | inactive: > 76.9 µM
75 | COc1ccc(S(=O)(=O)N2CCC(O)(c3ccc(Cl)cc3)CC2)cc1 | inactive: > 76.9 µM
76 | Cc1ccc(N(CC(=O)O)S(C)(=O)=O)cc1Cl | inactive: > 76.9 µM
77 | Cn1c(SCC(=O)NCc2ccco2)nnc1-c1ccc(S(=O)(=O)N2CCOCC2)cc1 | inactive: > 76.9 µM
78 | O=C(NCc1ccccn1)C1CCN(S(=O)(=O)N2CCCCC2)CC1 | inactive: > 76.9 µM
79 | Cc1cccc(N(CC(=O)NC2CCCC2)C(=O)CCCC(=O)Nc2ccccn2)c1 | inactive: > 76.9 µM
80 | CCN(CC)CCNC(=O)c1c(O)c2cc(OC)c(OC)cc2[nH]c1=O | inactive: > 76.9 µM
81 | C=CCSc1nnc2c(n1)OC(c1cccnc1)N(C(C)=O)c1ccccc1-2 (stereo unspecified) | inactive: > 76.9 µM
82 | Cc1cccc(C)c1NC(=O)CSc1nnc(CCCCCNC(=O)OC(C)(C)C)o1 | inactive: > 76.9 µM
83 | O=C(C1CCC(C(=O)N2CCCCC2)CC1)N1CCCCC1 (stereo unspecified) | inactive: > 76.9 µM
84 | CCC(=O)Nc1cc(OC)c(NC(=O)c2ccccc2)cc1OC | inactive: > 76.9 µM
85 | Cc1cccc(OCCCC(=O)O)c1C | inactive: > 76.9 µM
86 | COc1ccccc1CC(=O)Nc1ccc(O)cc1C(=O)O | inactive: > 76.9 µM
87 | CC(C)Oc1ccc(C2/C(=C(/O)c3ccc(F)cc3)C(=O)C(=O)N2CCCN(C)C)cc1 (stereo unspecified) | inactive: > 76.9 µM
88 | CC(=O)NC(C)C(c1cccs1)N1CCN(c2ccccc2)CC1 (stereo unspecified) | inactive: > 76.9 µM
89 | CCc1cc(=O)oc2c(C)c(O)c(CN3CCCCC3)cc12 | inactive: > 76.9 µM
90 | O=C(NC1CCCC1)C(c1cccs1)N(Cc1ccco1)C(=O)c1csnn1 (stereo unspecified) | inactive: > 76.9 µM
91 | CC(C)(C)C1(c2ccccc2)NC(=O)N(CC(=O)N2CCOCC2)C1=O (stereo unspecified) | inactive: > 76.9 µM

From PubChem BioAssay AID360 (National Center for Advancing Translational Sciences (NCATS), 2006)
